# Data taken from the supplement of paper PMC9174493.
# The other results are listed elsewhere or left out. Single values of this set are uncertain. Values with irradiation are relative to irradiated vehicle.
# Tested on: A549-Dual
# Experiment: NF-kB reporter (SEAP) activity, viability-corrected, relative to vehicle (fold change vs vehicle); higher = more activation of STING-IRF / NF-kB immune response reporter
# Details: 10 µM; irradiation: none
# 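Further: viability correction based on the alamar blue assay, with concentrations leaving 10% survival or less dropped.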
row,SMILES,NF-kB reporter
1,O=C(O)CC(O)C(=O)O (stereo unspecified) [Malic acid],1.45
2,CCC(C)C(N)C1=NCC(C(=O)NC(CC(C)C)C(=O)NC(CCC(=O)[O-])C(=O)NC(C(=O)NC2CCCCNC(=O)C(CC(N)=O)NC(=O)C(CC(=O)[O-])NC(=O)C(Cc3c[nH]cn3)NC(=O)C(Cc3ccccc3)NC(=O)C(C(C)CC)NC(=O)C(CCCN)NC2=O)C(C)CC)S1.[Zn+2] (stereo unspecified) [Bacitracin Zinc],0.99
3,Cc1cc(C(C)(C)C)cc(C)c1CC1=NCCN1.Cl [Xylometazoline HCl],0.856
4,CNCCC(Oc1cccc2ccccc12)c1cccs1 (stereo unspecified) [Duloxetine],0.761
5,CC(C)(C)CC(C)(C)c1ccc(OCCOCC[N+](C)(C)Cc2ccccc2)cc1.[Cl-] [Benzethonium Chloride],1.77
6,O=C(O)c1ccc(-n2nc(-c3ccccc3O)nc2-c2ccccc2O)cc1 [Deferasirox],1
7,Cc1onc(-c2c(F)cccc2Cl)c1C(=O)NC1C(=O)N2C1SC(C)(C)C2C(=O)[O-].[Na+] (stereo unspecified) [Flucloxacillin sodium],0.788
8,Cc1nc(C)c(C)nc1C.Cl [Ligustrazine hydrochloride],0.811
9,C=CC1(C)CC(OC(=O)CSC2CC3CCC(C2)N3C)C2(C)C(C)CCC3(CCC(=O)C32)C(C)C1O (stereo unspecified) [Retapamulin],0.909
10,NS(=O)(=O)c1cc(C(=O)O)c(NCc2ccco2)cc1Cl [Furosemide],1.07
11,CC1CCC(C(C)C)C(O)C1 (racemic) [DL-Menthol],0.686
